Measurements: the supplement of paper PMC12632987
The full ranking holds about 4,500 sequences; the median of “median log2 fold change of GCK-ALFA target abundance (FLAG IP / Myc IP barcode read proportion)” is about 0.078, and the lowest 2% start at about -0.6. The list shows a part of the results.

B1: GBRAP_184_5028 (protein)
chain: TVLEEEIRAKDLAELEAALAALAARVAGSGADLVVSVSLENPTAEMVTTALAGLGAIKAAGNVARVTVGFEGELSEELREVALAAGDANGVRVVLPISDE
B2: GBRAP_160_4338 (protein)
chain: SPKTEEIIEFINEEFDETIELIEGESFEERKVIIEGTFGEILMYLSEDESISDETEDKVAEIFDETLATLDANPDLSLEEIKALINETRDKVIEIIKEEE
B3: GBRAP_52_6312 (protein)
chain: MHERMRELAEELLELMLAGDREGARALAREIVATLSEEELLLLAEELAELAEELDEEELEKAAELLFILEDEMEAAGVDERVIAEMLGIIITAIYKAEQK
B4: GBRAP_9_7182 (protein)
chain: TAEKKQKILENVKEEAELALEVTPEEKKPIIKEALDKLLEELEKLVADPNATLEEILEALEKGAKEIIELAKENLDKDTARQVEAILNTAILYAEEIVEE
B5: GBRAP_125_2970 (protein)
chain: MREELLEDLGLLARALGLSPEEVEELVELARRHSVRGALYALMAALGHDETAELVAQITEEEAEEVLRRVAAWIRAHPDATPEEVVAKLREELEAAIAAR
B6: GBRAP_160_4505 (protein)
chain: SEKYKEAAQVAKDAAKFIEEEKDTLTPEELAVVVAGEAGKVILTADELGVLSDEELDEFDKKSRELVEKIKTGNAEEAKKAVDEAIKMFKDLAKKLEAKA
B7: GBRAP_128_3265 (protein)
chain: ANPEIVAYAEAFVEKLIAADDEEAKKLADELMERLLTLSVEEVEQFVDVIKKNLDKLSVEKLDILADAAREHRDRFSPEKANLVADLAVEALNEAEEKEE
B8: GBRAP_160_4744 (protein)
chain: SEELKKVLKEINEIFEEGIALLEEVPKEEALTVVRGTMGEVIMTVMSSDAISDELEEKIGKIMDEAEKEAEANKDGSVEEFIKILKKAREEIEKLIKKEI
B9: GBRAP_57_6465 (protein)
chain: MTPLEKAAEHFEKAIELIKAGASEEEILAEVKKGLDHLDREDLLDILLLLDPSTRSDLSKEELKAKLLELIRRLLREEGREAALKALELMLGQVEMDLIE
B10: GBRAP_9_7109 (protein)
chain: LEELIEKFKEIVEEMKEELLKVLSEELHPLVDEKVEEILETLEELKKDPNTTKEEVLKTTLELLAKMKKELEAASTPEEAAGVRTIVATAEVEIEEAYEE
B11: GBRAP_160_4421 (protein)
chain: METIKEVEEILDETTELVVELIKEGEREEAIAALRVGKGEILLLLDEDESVSEETREKVDEVLDETIEKLEENKDFTPEEVKELLEEAKKKIIEILKEGS
B12: GBRAP_125_2965 (protein)
chain: SEEEALEALAIIAKALGFDEDEVEEAVELARRFGLKKTLIALFLAEGYEEVADLVEKLTEEEAREVAKKLAEEIKKNPELTPEEVVELAKKLFEEVIAKK
B13: GBRAP_139_3710 (protein)
chain: TPPEELVEEAKKIVEENKDNIDLLAKKIAELISKADPETALKIARAAAEKLKDFSWEEWEKLIDLVSEELKKLGMEEDDVLAIEGEMEAVFAEQELKKLE
B14: GBRAP_78_6611 (protein)
chain: ETKEKILKLLEEAEELAREVRKLAPEVAEQAAELEVLLGTAIYMVDTGSESKEEILETLEEAEKAAKELKKLVEGLAEEVQKLVKEALEKIKEAIKLLKE
B15: GBRAP_160_4040 (protein)
chain: KEKYEKLEKFAKEVFEEAKKLIEGQTVEQAAVVFSVAMGQIILKAEELGIDDEELHEKIKKLEDEGVEYLLKNPELTEEEIKELIEKAEKEILKAIEEAK
B16: GBRAP_128_3229 (protein)
chain: MSPELRARVQALIDTIINGDVAETRAATRELVALMATVSDEEAEEIAEALIAAIPQLTAEKLDAVADALRENAGRLSPEKAALAYDVAIAALEQAEELEE
B17: GBRAP_125_3063 (protein)
chain: AKEAAIENLELIARALGLSEDDIAELRRLAEAGSIKNTLIAIALAEGREDLADAIEKLTEEEAEAVLAELAAELEANPELTPEEVLERLLALAEAALAAR
B18: GBRAP_78_6734 (protein)
chain: EVEEELEKAIELLDEAIKLAIGKVSNEVIAELVEALSDVIEALELLEEGGEKEEILKEIEEAIKHLEEALKLLPEEEKEIRKLVEKAKEKLEKALKEVKK
B19: GBRAP_166_4914 (protein)
chain: SMEELVEEAKERIEKLVKEMPKLDEEGKIEALIEIAEIIRELKEAGASEEEINEVIRFLAEKLKEEGLDVRHYLAIVAAAAEFDEEEMDKIDKIVEEVLK
B20: GBRAP_128_3536 (protein)
chain: SLEEVRARAAAVMDAIKAATVEEAYAIMKAFLEELKGLSLEEVEAAMDVLEERLPELTAEKLEAIADAMDEERPKLSPEKQRLVADLQVEALNLAEEKEE
B21: GBRAP_160_4636 (protein)
chain: SPAAEDLIAIVDEYTAIILEEIDAGDIDGALAALRMMVGDLVLAAEESPEFSEEDVEELDRLGREHVERFEANRDASKEELKALVEEGAEELKRLIKEKA
B22: GBRAP_137_3613 (protein)
chain: KKITITFSEEDGTAFATIKADKSVDHEKLEELVLKVAEETGAKVVIAYSDEEDELEIDLVGDRETIVKAVKLLVKRLKEELGAEVILESEGAEDLVEAVK
B23: GBRAP_128_3334 (protein)
chain: MDEERVAEIERLARAIIEADAEEARRLAEEIAERLVELSLEEVRAAVERLLELLPELSAEHLDILADVLREHLPRFEPEKANEVADLQVEALNLSVELEE
B24: GBRAP_160_4189 (protein)
chain: SEEVEKLIEEIKEIAEEAIEMIEGETYEQRLVIVEGMFGQIIMLLMSSEAVSDEAEEKVAEVADEAVEYLRENPDLTEEEIKELIKETTEKIIEIIKELS
B25: GBRAP_160_4060 (protein)
chain: SESKERLLELVDEAKEEILDVLDEEGAEAAIVMAAGEYGAVIMEAAEDEDASDELVDELAKVRDELVKELKENKDASKEELKKIIEKHAEEAKKIIKKHY
B26: GBRAP_117_2565 (protein)
chain: SAEDKEFEERVKELVEKAKELIRKRKEAPPEEQPKLEKELEELIREETRELIEKHGEEKTEEALEEALLSLDAEEYFEIELRREEAFAEIREEREREEAA
B27: GBRAP_11_2911 (protein)
chain: KKELLKKLAELLEELVEKLKELLEEGVDNEELLEEALELAEEALKLAEEALDEADVELAKELVELLKKAKEDPENAEQYVKEALATARVLLGQVLLAIEE
B28: GBRAP_26_5436 (protein)
chain: IEEVVRESIKRIEEVAKKIGDPEKAAAALAEAITLLEEFVETAEEENLSEEEMEKLAEEKVKELREFLEDLGLSEELIEELVKTFREELKKIKEELLKKR
B29: GBRAP_160_4540 (protein)
chain: SEKVEELKELIDEETEFVKSLVDEVSTEELINIFKTEFGAVIMEGEELGILTDELEEKLDEIAEKLVKWLKENPNASPEEKKKAIEKAAEEMKKAIEEEG

What follows are binders tested against GABARAP, O95166 (assay: median log2 fold change of GCK-ALFA target abundance (FLAG IP / Myc IP barcode read proportion) (log2 ratio); each designed protein is fused to an ALFA-tag nanobody in HEK293 cells to bring the named protein to FLAG-tagged glucokinase (GCK); Myc marks an untargeted standard; higher = target protein stabilised (more abundant)). Conditions: target protein: 3xFLAG-MCP-GCK-ALFA reporter; HEK293 landing pad (RPLP).
Procedure, shortened: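 The readout is target abundance, the per-binder median log2 ratio of FLAG to Myc barcode read proportions. It came from HEK293 landing-pad cells carrying a recombined ALFA-nanobody-fused binder library, induced with 2 μg mL^−1 doxycycline and transfected with a plasmid for a FLAG-tagged target and a Myc-tagged standard. After 48 h, lysates were immunoprecipitated with anti-FLAG and anti-Myc, and circular RNA barcodes were reverse transcribed, amplified and sequenced. Each barcode needed a proportion of at least 10^−7 in both replicates and each binder at least 3 barcodes per replicate, a pseudocount of 10^−6 was added, and the replicates were pooled.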

Sequence of GABARAP, O95166 (O95166 whole entry, the tested form may be a part): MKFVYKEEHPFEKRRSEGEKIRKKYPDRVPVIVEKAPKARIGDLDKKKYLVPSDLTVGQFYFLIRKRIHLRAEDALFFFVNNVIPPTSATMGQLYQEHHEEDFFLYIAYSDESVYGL

Row | Binder | median log2 fold change
1 | B1 | 0.24
2 | B2 | -0.423
3 | B3 | -0.795
4 | B4 | 0.27
5 | B5 | -0.257
6 | B6 | 0.268
7 | B7 | 0.214
8 | B8 | 0.285
9 | B9 | 0.188
10 | B10 | 0.423
11 | B11 | 0.268
12 | B12 | -0.872
13 | B13 | -0.507
14 | B14 | 0.172
15 | B15 | -0.0275
16 | B16 | 0.114
17 | B17 | 0.13
18 | B18 | 0.166
19 | B19 | 0.253
20 | B20 | 0.228
21 | B21 | -0.0391
22 | B22 | -0.43
23 | B23 | 0.0816
24 | B24 | -0.225
25 | B25 | 0.293
26 | B26 | 0.581
27 | B27 | 0.062
28 | B28 | 0.332
29 | B29 | -0.0975
